# In PubChem BioAssay AID1745853 (National Center for Advancing Translational Sciences (NCATS), 2022):
# Some of the results follow. These are further read-outs of the screen, such as a control signal, another cell line or another target. No call is given for them.
# Experiments:
# Assay in all cases: Primary Screen for Target Class Profiling of Small Molecule Inhibitors of Methyltransferases
# [1] = target: Glycine N-methyltransferase (Homo sapiens) (UniProt Q14749); conditions: purified enzyme, MTase-Glo SAH luminescence; measured here: GNMT inhibition; at 40 µM; stronger effect = lower value
# Outline: (§1)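 Each enzyme was assayed with SAM and its substrate. SAH formation detected by MTase-Glo luminescence; single-point 40 uM screen[…].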
# [2] = target: Guanidinoacetate N-methyltransferase (Homo sapiens) (UniProt Q14353); conditions: purified enzyme, MTase-Glo SAH luminescence; measured here: GAMT inhibition; at 40 µM; stronger effect = lower value
# Outline: as §1
# [3] = target: Histamine N-methyltransferase (Homo sapiens) (UniProt P50135); conditions: purified enzyme, MTase-Glo SAH luminescence; measured here: HNMT inhibition; at 40 µM; stronger effect = lower value
# Outline: as §1
# [4] = target: Nicotinamide N-methyltransferase (Homo sapiens) (UniProt P40261); conditions: purified enzyme, MTase-Glo SAH luminescence; measured here: NNMT inhibition; at 40 µM; stronger effect = lower value
# Outline: as §1
# [5] = target: Phenylethanolamine N-methyltransferase (Homo sapiens) (UniProt P11086); conditions: purified enzyme, MTase-Glo SAH luminescence; measured here: PNMT inhibition; at 40 µM; stronger effect = lower value
# Outline: as §1
# On the % scale 0 is the no-effect control and ±100 the full control effect.
SMILES,"activity change, negative = inhibition [1]","activity change, negative = inhibition [2]","activity change, negative = inhibition [3]","activity change, negative = inhibition [4]","activity change, negative = inhibition [5]"
CCC(C)NC(=O)c1ccc2c(=O)n(Cc3ccccc3)c3nn(Cc4cccc(OC)c4)c(=O)n3c2c1 (stereo not drawn),1.37%,5.93%,-2.33%,1.24%,1.72%
CN(Cc1cccn1C)C(=O)C1CC1,-4.17%,-4.54%,-0.111%,-10.6%,-5.71%
CCOc1c(CN(C)C(=O)Cn2cccc(OC)c2=O)cccc1OC,-83.3%,-68.5%,-14.2%,-18.3%,-23.3%
CCC(C(=O)N1CCN(c2ccccn2)CC1)n1ccc2cc(S(=O)(=O)N3CCCCC3)ccc21 (stereo not drawn),1.02%,2.26%,3.28%,0.259%,0.482%
CCOc1ccc(C(=O)Cn2nc3n(C)c(=O)c4ccc(C(=O)NC5CCCC5)cc4n3c2=O)cc1,1.05%,0%,-2.86%,0.634%,2.53%
CNCCCN1c2ccccc2CCc2ccccc21,1.94%,14.6%,-21.2%,-9.15%,10.9%
C=C1C(O)CC2C(C(=O)O)=COC(O[C@@H]3O[C@H](COC(=O)/C=C/c4ccc(O)cc4)[C@@H](O)[C@H](O)[C@H]3O)C12 (stereo partly drawn),0%,-0.882%,3.41%,-13%,3.16%
COCCN1C(=O)c2c(NC(C)=O)c3cc(F)ccc3n2CC1(C)C(=O)NC1CCCCCC1 (stereo not drawn),-6.24%,-4.9%,-3.37%,-6.12%,-2.42%
CC(C)(C(=O)NCC(F)(F)C(F)(F)F)C(=O)N[C@@H]1C(=O)Nc2ccccc2-c2ccccc21,–,3.43%,–,-18.9%,2.73%
CN1C[C@H](NC2CCC2)CCC[C@@H](C(=O)NC2CCOCC2)CC1=O,-4.06%,-2.24%,-1.4%,-3.56%,-12.7%
CC12CCC(=O)C=C1C(O)CC1C2C(O)CC2(C)C1CC[C@]2(O)C(=O)CO (stereo partly drawn),1.33%,7.09%,11.2%,-4.83%,8.07%
CCOC(=O)c1cc2n(n1)CC(C)(C(=O)NC1CCCC1)N(c1ccc(C)cc1C)C2=O (stereo not drawn),8.29%,3.35%,7.87%,6.25%,6.84%
Cc1ccc(Cl)cc1NC(=O)N1CCn2c(C)ccc2C1C(C)C (stereo not drawn),2.48%,0.097%,-7.13%,-7.95%,-0.667%
CN1CCN(CCCN2C(=O)c3ccc(-c4ccco4)n3CC2(C)C(=O)NC2CCCC2)CC1 (stereo not drawn),-0.543%,4.62%,1.02%,8.18%,0.982%
O=C(CCc1nnc2n(Cc3ccccc3Cl)c(=O)c3ccccc3n12)NCc1ccc(F)cc1,-0.244%,0%,13.2%,11.7%,1.86%
Cc1onc(C(=O)NCc2ccc3[nH]c(-c4ccc(F)cc4)c(C)c3c2)c1CO,-16.4%,-2.98%,-2.25%,-11.6%,-3.85%
CCc1ccccc1NC(=O)N1C[C@@H](F)C[C@H]1C(=O)N1CCc2ccccc2C1,-5.51%,1.41%,-2.06%,-4.54%,-1.84%
Cc1oc2c(c1C(=O)N1CCOCC1)CN(Cc1cccnc1)CC2,-1.15%,-1.79%,0.846%,0.932%,-2.54%
CC1(C(=O)NCc2ccccc2)Cn2c(cc3occc32)C(=O)N1Cc1ccc(Cl)cc1 (stereo not drawn),3.58%,0%,-10.5%,-12.7%,-25.8%
Cn1cc(CN2CCCC(COc3ccccc3C(=O)N3CCCCC3)C2)c2ccccc21 (stereo not drawn),-7.97%,-7.9%,-50.8%,-17.4%,2.65%

SMILES,"activity change, negative = inhibition [1]","activity change, negative = inhibition [2]","activity change, negative = inhibition [3]","activity change, negative = inhibition [4]","activity change, negative = inhibition [5]"
Cc1nc(-c2cn(C3CCCN(C(=O)c4cccc(Br)c4)C3)nn2)no1 (stereo not drawn),0.053%,2.24%,3.68%,-4.44%,0.244%
COc1ccc(O[C@@H]2O[C@H](CO)[C@@H](O)[C@H](O)[C@H]2O)cc1OC,2.83%,-2.97%,-9.47%,-16.2%,4.31%
Cc1ccc(NC(=O)c2ncn3c2C(=O)N(C2CC2)C(C)(C(=O)NCCCOC(C)C)C3)cc1F (stereo not drawn),-2%,1.79%,-2.01%,-2.15%,-2.01%
CC[C@H]1CN(c2nc(N)c(C(N)=O)nc2Cl)CCN1C1CCN(Cc2ccc(Cl)cc2)CC1,-1.03%,5.14%,0.836%,-59%,2.09%
COc1ccc(CNC(=O)CCc2nnc3n(Cc4ccccc4Cl)c(=O)c4ccccc4n23)cc1,-7.61%,-2.95%,-3.4%,-7.11%,-7.8%
Cc1c(-c2ccccc2F)[nH]c2ccc(CNC(=O)C3C=CCN3)cc12 (stereo not drawn),-7.68%,-3.87%,-5.48%,-12.3%,-5.33%
CCCn1c(=O)c2cc(Cl)ccc2n2c(SCC(=O)NCc3ccc(Cl)cc3)nnc12,5.03%,0%,9.1%,4.15%,5.53%
Cc1cccc(Nc2nc3c(S(=O)(=O)c4ccccc4)nnn3c3ccccc23)c1,-7.93%,-3.54%,-7.68%,-6.51%,-7.99%
CC(CCC1C(C(=O)O)=CC(=O)CC1(C)C)O[C@@H]1O[C@H](CO)[C@@H](O)[C@H](O)[C@H]1O (stereo partly drawn),0%,4.19%,1.85%,-7.98%,5.67%
NC(N)=NC(=O)c1cnn(-c2cccc3ncccc23)c1C1CC1,-5.03%,-4.7%,-19.6%,-59.6%,-11.9%
Cc1ccc(-c2noc([C@@H]3Cc4nc[nH]c4CN3C(=O)NC3CCCCC3)n2)cc1,-10.6%,-8.7%,-8.69%,-15.4%,10.1%
Cc1ccc(-c2c(-c3nn(C)c4ncnc(N5CC[C@H](N6CCCCC6)C5)c34)cnn2C)cc1,0.957%,5.82%,11.1%,-19.4%,2.63%
c1cnc(-c2noc(-c3nc(-c4ccc5c(c4)OCO5)no3)n2)cn1,-4.64%,-9.24%,-2.55%,-15.2%,-18.7%
CCC1c2ccc(C)n2CCN1C(=O)Nc1ccccc1Br (stereo not drawn),5.47%,2.07%,2.04%,-7.95%,1.94%
CCN1C(=O)Cc2cc(C(=O)Nc3ccc(F)cc3)ccc21,-2.84%,-1.86%,0.991%,-3.62%,2.86%
C/C=C/C=C/C(CC(=O)O)Nc1ccc(C=O)cc1 (stereo not drawn),-26.6%,-3.6%,2.07%,-17.8%,-8.16%
CCCN1C(=O)c2c(C(=O)NCCc3cccc(C)c3)ncn2CC1(C)C(=O)NC1CCCC1 (stereo not drawn),0.277%,0%,2.38%,5.2%,-4.57%
c1cncc(CN2CC[C@H](c3nnc(Cc4c[nH]c5ccccc45)o3)C2)c1,-9.52%,-2.64%,-6.95%,-5.76%,9.22%
O=C(C(Cc1cccc(C(F)(F)F)c1)NS(=O)(=O)c1cc(F)c2c(c1)CCNC2)N1CCCC1 (stereo not drawn),0.832%,-5.72%,-5.93%,-19.9%,-11.5%
